{
  "source": "the BET-seq Pho4 binding data (Le et al. 2018)",
  "note": "This is one part of the list. The energies were worked out here from pooled read counts, against the library average; single values are noisy.",
  "data": [
    {"target": "T1, Pho4 (S. cerevisiae) (UniProt P07270)", "T1 sequence": "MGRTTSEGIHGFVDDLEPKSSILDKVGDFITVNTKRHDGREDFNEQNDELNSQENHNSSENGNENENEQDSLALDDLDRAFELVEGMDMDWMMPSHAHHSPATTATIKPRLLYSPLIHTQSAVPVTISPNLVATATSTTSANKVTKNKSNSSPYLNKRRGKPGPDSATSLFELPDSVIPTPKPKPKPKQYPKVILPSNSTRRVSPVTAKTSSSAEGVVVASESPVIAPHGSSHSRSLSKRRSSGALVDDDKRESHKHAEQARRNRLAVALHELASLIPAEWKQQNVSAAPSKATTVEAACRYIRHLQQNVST", "test": "relative binding free energy (BET-seq); higher = weaker binding", "conditions": "reference: library average", "units": {"relative binding free energy": "kcal/mol"}, "values": [
      {"sequence": "TTTCTCACGTGTGAGC", "relative binding free energy": 0.35},
      {"sequence": "GGTAGCACGTGTGGGC", "relative binding free energy": 0.01},
      {"sequence": "GGATGCACGTGGTGGG", "relative binding free energy": -0.01},
      {"sequence": "GAGATCACGTGAGGTG", "relative binding free energy": 0.35},
      {"sequence": "GCTTACACGTGTTGTA", "relative binding free energy": 0.13},
      {"sequence": "TGAATCACGTGATGAT", "relative binding free energy": 0.32},
      {"sequence": "ATTTCCACGTGGGGTC", "relative binding free energy": -0.04},
      {"sequence": "TGAACCACGTGGGTGT", "relative binding free energy": -0.13},
      {"sequence": "TTTGGCACGTGAAGCG", "relative binding free energy": 0.14},
      {"sequence": "TAATTCACGTGGGGTC", "relative binding free energy": 0.11},
      {"sequence": "TTTGTCACGTGGATGA", "relative binding free energy": 0.13},
      {"sequence": "TATTTCACGTGTTTTA", "relative binding free energy": 0.23},
      {"sequence": "TATGACACGTGGGTAT", "relative binding free energy": -0.24},
      {"sequence": "TCAGGCACGTGATTTG", "relative binding free energy": 0.18},
      {"sequence": "TAAAGCACGTGGTGGT", "relative binding free energy": -0.12},
      {"sequence": "TGGTTCACGTGCGTTC", "relative binding free energy": 0.18},
      {"sequence": "CATGGCACGTGTAGGA", "relative binding free energy": -0.15},
      {"sequence": "TGGTCCACGTGGCGGC", "relative binding free energy": -0.03},
      {"sequence": "GGGTACACGTGAGGTA", "relative binding free energy": 0.44},
      {"sequence": "ATAGACACGTGAAGTG", "relative binding free energy": 0.2},
      {"sequence": "CGGGTCACGTGTTATG", "relative binding free energy": 0.12},
      {"sequence": "CGTGTCACGTGAGTAT", "relative binding free energy": 0.27},
      {"sequence": "AATGTCACGTGGGTAA", "relative binding free energy": -0.07},
      {"sequence": "TGTGGCACGTGGCATA", "relative binding free energy": -0.26},
      {"sequence": "GCTTACACGTGAGGGG", "relative binding free energy": 0.26},
      {"sequence": "ATAAGCACGTGGGGAA", "relative binding free energy": -0.21},
      {"sequence": "AAAGTCACGTGGTTTA", "relative binding free energy": 0.09},
      {"sequence": "TTTTTCACGTGTTCGC", "relative binding free energy": 0.43},
      {"sequence": "AGGCGCACGTGAGCGT", "relative binding free energy": 0.15},
      {"sequence": "TAGTACACGTGTTGGC", "relative binding free energy": 0.15},
      {"sequence": "TCATGCACGTGGATTT", "relative binding free energy": 0},
      {"sequence": "AGTGGCACGTGAGTGG", "relative binding free energy": 0.14},
      {"sequence": "TTTGTCACGTGATATG", "relative binding free energy": 0.16},
      {"sequence": "AGGTGCACGTGAGTGC", "relative binding free energy": 0.22},
      {"sequence": "ATTTTCACGTGGCTAG", "relative binding free energy": 0.42},
      {"sequence": "GGTGACACGTGTTCGA", "relative binding free energy": 0},
      {"sequence": "TTAAGCACGTGGGGAC", "relative binding free energy": -0.2},
      {"sequence": "CTTTGCACGTGGGGAG", "relative binding free energy": -0.15},
      {"sequence": "TTTTACACGTGTCTGT", "relative binding free energy": 0.14},
      {"sequence": "GGTTTCACGTGGTTTT", "relative binding free energy": 0.35},
      {"sequence": "TAGTCCACGTGTGGCG", "relative binding free energy": 0.1},
      {"sequence": "AAGTGCACGTGCTGGA", "relative binding free energy": -0.02},
      {"sequence": "TAGATCACGTGAGGAT", "relative binding free energy": 0.23},
      {"sequence": "CGGTACACGTGTTCTT", "relative binding free energy": 0.21},
      {"sequence": "TGTGTCACGTGGGATG", "relative binding free energy": 0.11},
      {"sequence": "GTTGGCACGTGGGTGT", "relative binding free energy": -0.05},
      {"sequence": "ATAGACACGTGTAAGT", "relative binding free energy": -0.03},
      {"sequence": "AGAGGCACGTGCGCGG", "relative binding free energy": -0.27},
      {"sequence": "TGGGTCACGTGTATTA", "relative binding free energy": 0.09},
      {"sequence": "AATGCCACGTGATGGG", "relative binding free energy": 0.08},
      {"sequence": "GTCAACACGTGGTGGG", "relative binding free energy": -0.05},
      {"sequence": "GGGGGCACGTGGAGGT", "relative binding free energy": -0.06},
      {"sequence": "TCGTTCACGTGCGTTT", "relative binding free energy": 0.35},
      {"sequence": "ATAGGCACGTGGACTG", "relative binding free energy": -0.09},
      {"sequence": "AAGTGCACGTGGGATA", "relative binding free energy": 0.03},
      {"sequence": "TGGGGCACGTGAGCGG", "relative binding free energy": 0.11},
      {"sequence": "ATTAACACGTGGTAAG", "relative binding free energy": 0.03},
      {"sequence": "GTATGCACGTGATTGG", "relative binding free energy": 0.13},
      {"sequence": "GGTAGCACGTGGATGG", "relative binding free energy": 0.1},
      {"sequence": "TTGGACACGTGGGGCG", "relative binding free energy": -0.13},
      {"sequence": "GGTTCCACGTGTGTAT", "relative binding free energy": 0.12},
      {"sequence": "TTGTGCACGTGTGGTC", "relative binding free energy": 0.04},
      {"sequence": "TTAATCACGTGTCGTG", "relative binding free energy": 0.11},
      {"sequence": "AACGTCACGTGTAATG", "relative binding free energy": 0.39},
      {"sequence": "GGGGTCACGTGTTGCT", "relative binding free energy": 0.17},
      {"sequence": "TCAGGCACGTGTGTGT", "relative binding free energy": -0.08},
      {"sequence": "TATATCACGTGTAAGA", "relative binding free energy": 0.2},
      {"sequence": "ACAGGCACGTGATGTT", "relative binding free energy": 0},
      {"sequence": "TGGGACACGTGTTGAG", "relative binding free energy": 0.11},
      {"sequence": "GTTTGCACGTGGGGGT", "relative binding free energy": 0.06},
      {"sequence": "AGATGCACGTGGGATT", "relative binding free energy": -0.05},
      {"sequence": "CTAGTCACGTGGTGAG", "relative binding free energy": -0.01},
      {"sequence": "GATGGCACGTGGCATT", "relative binding free energy": -0.04},
      {"sequence": "CGGCTCACGTGGATGG", "relative binding free energy": 0.25},
      {"sequence": "TAGTGCACGTGTGTGC", "relative binding free energy": 0.08},
      {"sequence": "GGATGCACGTGGGTAT", "relative binding free energy": -0.07},
      {"sequence": "GTTGACACGTGTTGAG", "relative binding free energy": 0.04},
      {"sequence": "ACTGGCACGTGAAGGT", "relative binding free energy": 0.2},
      {"sequence": "TGAGTCACGTGATAAT", "relative binding free energy": 0.15},
      {"sequence": "GGGGGCACGTGTGCGC", "relative binding free energy": -0.11},
      {"sequence": "TTCGGCACGTGTGATG", "relative binding free energy": 0.09},
      {"sequence": "CTTCTCACGTGTCGGG", "relative binding free energy": 0.22},
      {"sequence": "TTATCCACGTGTTAGG", "relative binding free energy": 0.14},
      {"sequence": "TGATTCACGTGTCTTT", "relative binding free energy": 0.17},
      {"sequence": "TTTGACACGTGATGCG", "relative binding free energy": 0.04},
      {"sequence": "TTACACACGTGGGTGG", "relative binding free energy": -0.19},
      {"sequence": "TAAGACACGTGGTCGT", "relative binding free energy": -0.08},
      {"sequence": "ACTGTCACGTGGTCTT", "relative binding free energy": 0.1},
      {"sequence": "GGGGACACGTGGAGCG", "relative binding free energy": 0.04},
      {"sequence": "GGGGCCACGTGTTGGT", "relative binding free energy": -0.04},
      {"sequence": "TTGGACACGTGGAATC", "relative binding free energy": 0.32},
      {"sequence": "TGTTTCACGTGTTGCC", "relative binding free energy": 0.14},
      {"sequence": "GGGCTCACGTGGCGGT", "relative binding free energy": 0.2},
      {"sequence": "CGGGTCACGTGTTGGT", "relative binding free energy": 0.19},
      {"sequence": "TGTATCACGTGAATGA", "relative binding free energy": 0.37},
      {"sequence": "CATTGCACGTGCTGGG", "relative binding free energy": -0.02},
      {"sequence": "TTTCACACGTGGGTGT", "relative binding free energy": -0.19},
      {"sequence": "GTTAGCACGTGTGCGA", "relative binding free energy": -0.05},
      {"sequence": "AGCGGCACGTGTTTAT", "relative binding free energy": -0.04},
      {"sequence": "AGCGTCACGTGCTTGT", "relative binding free energy": 0.01},
      {"sequence": "GGGGCCACGTGATTAG", "relative binding free energy": 0.06},
      {"sequence": "GTTTGCACGTGTAAAG", "relative binding free energy": 0.2},
      {"sequence": "TTTGACACGTGTAAGG", "relative binding free energy": 0.11},
      {"sequence": "TGATTCACGTGGGTTG", "relative binding free energy": 0.1},
      {"sequence": "CATGGCACGTGTGGCG", "relative binding free energy": -0.18},
      {"sequence": "GGGTACACGTGATTGA", "relative binding free energy": 0.12},
      {"sequence": "GTGGTCACGTGAAGCT", "relative binding free energy": 0.21},
      {"sequence": "GCTTTCACGTGTATGT", "relative binding free energy": 0.25},
      {"sequence": "GGAAGCACGTGTAGGC", "relative binding free energy": -0.05},
      {"sequence": "GGGGGCACGTGCGTTG", "relative binding free energy": -0.1},
      {"sequence": "ATTATCACGTGTAATT", "relative binding free energy": 0.17},
      {"sequence": "TTTTCCACGTGTGATT", "relative binding free energy": 0.13},
      {"sequence": "TCGAACACGTGGGGCG", "relative binding free energy": -0.02},
      {"sequence": "ATAAGCACGTGCGTGT", "relative binding free energy": -0.1},
      {"sequence": "GTTGGCACGTGGGGTG", "relative binding free energy": -0.09}
    ]}
  ]
}
